Over roughly 33,000 sequences, “E-score (-0.5 to 0.5)” has its median near -0.032; the highest 2% begin near 0.36. Some of the results follow.
The sequences below were run against T1, Sko1 (UniProt Q02100) (assay: PBM E-score (8-mer binding enrichment) (E-score (-0.5 to 0.5)); higher = stronger / more preferred TF binding; most listed sequences are background and not binding sites). Conditions: protein concentration: 200 nM; construct: GST-full length.
T1 sequence: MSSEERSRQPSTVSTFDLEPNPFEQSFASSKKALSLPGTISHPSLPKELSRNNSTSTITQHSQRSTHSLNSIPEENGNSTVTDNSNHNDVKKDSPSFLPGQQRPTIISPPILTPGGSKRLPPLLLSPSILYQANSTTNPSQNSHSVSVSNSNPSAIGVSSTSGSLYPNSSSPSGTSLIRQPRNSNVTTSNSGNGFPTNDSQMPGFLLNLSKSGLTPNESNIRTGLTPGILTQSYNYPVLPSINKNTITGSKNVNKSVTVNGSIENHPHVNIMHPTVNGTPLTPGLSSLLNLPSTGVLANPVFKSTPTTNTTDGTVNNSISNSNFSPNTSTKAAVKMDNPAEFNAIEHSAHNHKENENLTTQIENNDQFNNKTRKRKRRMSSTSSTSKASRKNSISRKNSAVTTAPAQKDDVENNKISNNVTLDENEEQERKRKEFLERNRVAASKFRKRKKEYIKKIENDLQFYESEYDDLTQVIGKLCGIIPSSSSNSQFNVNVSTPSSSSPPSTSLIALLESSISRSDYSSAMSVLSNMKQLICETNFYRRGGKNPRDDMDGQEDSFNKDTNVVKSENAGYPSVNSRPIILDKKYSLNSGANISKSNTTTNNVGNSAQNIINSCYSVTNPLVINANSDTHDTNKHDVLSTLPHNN
Outline: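 PURExpress in vitro transcription/translation supplied GST-tagged yeast transcription factors, either full-length or DNA-binding domain. Applied at about 100-200 nM to universal all-10-mer Agilent arrays double-stranded by primer extension, the bound protein was detected with fluorescent anti-GST. E-scores, modified Wilcoxon-Mann-Whitney statistics, were given by the Universal PBM Analysis Suite to ungapped eight-base words pooled with their reverse complements after masliner normalisation.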

Row | Sequence | PBM E-score
1 | CCATCTGA | 0.0122
2 | TAAGCTTA | 0.199
3 | TTCAAAAA | 0.039
4 | TGGAGACA | -0.0854
5 | GTCGGACA | -0.0488
6 | TCAGTTAA | 0.101
7 | ACTGCATG | -0.00289
8 | AACGCCGC | -0.0243
9 | GTAGTAAC | -0.0447
10 | CCCTATAG | -0.169
11 | GATCCAAC | -0.168
12 | CGTTTACC | 0.107
13 | CTGAGCAG | -0.00663
14 | CTTACAAC | 0.101
15 | CGGGTGAC | 0.141
16 | GCGACGCC | -0.0621
17 | CAGTAGAA | 0.0237
18 | AACTTCCT | -0.0621
19 | CTATTCTA | 0.0865
20 | GCCGTCAC | 0.166
21 | AGAATATG | 0.14
22 | CACAAGGA | -0.121
23 | ACTGGGGG | -0.346
24 | AATTGCGG | -0.172
25 | ATAAAGCC | -0.108

Row | Sequence | PBM E-score
26 | GTTCGAGA | 0.0475
27 | CGATAGGC | -0.218
28 | CTTCATCA | 0.116
29 | CGTGAAAA | 0.151
30 | CCCGGAGA | -0.155
31 | GCTGACGA | 0.352
32 | GCGTGCGA | -0.0187
33 | GGAGGAAA | -0.186
34 | GTGCTGCA | 0.00869
35 | ATCAGGGC | -0.139
36 | GATAACAC | 0.151
37 | CAAGAATG | -0.0283
38 | ACATACAC | 0.165
39 | AGGTATCC | -0.058
40 | AGGGACTA | -0.232
41 | ATGGTGAC | 0.0144
42 | AATTCCCG | 0.0364
43 | CAGAACTC | -0.0896
44 | AATGATGG | 0.189
45 | AGACAAAA | 0.0462
46 | ATGCTGGA | -0.0717
47 | CACCGCAA | 0.119
48 | GCTCCTCC | -0.138
49 | GCACTCGC | -0.0508
50 | GCAGCGGA | -0.11

Row | Sequence | PBM E-score
51 | AAGTGACA | 0.311
52 | AATCTCAA | 0.0641
53 | CCACCTCA | -0.15
54 | ACTTAGCA | -0.0486
55 | GGTGTTAC | -0.0156
56 | AACACGAC | 0.133
57 | GAGCTTCC | -0.151
58 | CATCCATA | -0.0657
59 | CCTCCGCA | -0.374
60 | GGGTGTGA | -0.134
61 | ACAATCGG | 0.033
62 | GCATTGAC | 0.234
63 | CACAGGAA | -0.0894
64 | GCTAGCAC | -0.116
65 | TACCCATA | -0.006
66 | AGATAGCC | -0.299
67 | CCCGACGC | -0.148
68 | CGCAGACC | -0.176
69 | ATCTTCTG | 0.0454
70 | GGGATCAC | -0.136
71 | CGGCCCTC | -0.261
72 | AGTAACGG | -0.0156
73 | CCGATAGC | -0.164
74 | AGGAGTAT | 0.00787
75 | AACATGGA | 0.00272

Row | Sequence | PBM E-score
76 | GATGTGCC | -0.141
77 | GGGATAGA | -0.0751
78 | GACCTGGC | -0.297
79 | AAGAAGAC | 0.00849
80 | CACAGTGG | -0.209
81 | GGACCGAC | -0.0912
82 | CAGAATTC | 0.0992
83 | AACCCACA | -0.0796
84 | CCCGATCA | -0.258
85 | GGCGTACA | -0.0526
86 | ATATTCAC | 0.214
87 | ACGACTTC | 0.312
88 | CCACGTCC | 0.109
89 | CACTTATC | 0.11
90 | CTGGGCAA | -0.145
91 | CAATTTAA | 0.144
92 | ACTGGTAG | -0.0615
93 | CAAGGGGC | -0.27
94 | ACATCCGA | -0.126
95 | TAATGACA | 0.364
96 | ACACAATG | 0.246
97 | AAGACGCG | -0.115
98 | CCGCTACG | 0.103
99 | CGGTTCTC | -0.0999
100 | GAGGCACC | -0.239

Row | Sequence | PBM E-score
101 | ACCTGTTG | 0.0805
102 | CGATCGCG | 0.0985
103 | CGTGTTGC | 0.166
104 | AGTAACTG | -0.00122
105 | AGCAAACT | 0.0407
106 | ACGGACAA | 0.0454
107 | AAAATAGC | -0.113
108 | ACTTTTTC | -0.0473
109 | CAGCCTCA | -0.081
110 | GACCTTAC | 0.0378
111 | CGTGAATA | 0.303
112 | CCCGGTGC | -0.236
113 | CCCTATAC | -0.139
114 | ACCCCAAG | -0.136
115 | ATCGGACA | 0.0445
116 | CGGAAGCA | 0.0556
117 | ATTGGCGG | 0.0243
118 | GCGGCTGA | -0.128
119 | TCCGCAAA | -0.17
120 | CGGATTAG | -0.0423
121 | AAGATCTA | -0.198
122 | AACGTCCA | 0.245
123 | GTTATAGA | 0.15
124 | AAAAAATG | 0.179
125 | CGGCGGTA | -0.257

Row | Sequence | PBM E-score
126 | GGGAAGGA | -0.191
127 | CCAACGGC | -0.201
128 | ATCTAACA | 0.0736
129 | ATGGAGCG | -0.193
130 | TAGTTCAA | 0.0959
131 | CCTATACG | 0.214
132 | AGTGGTCG | -0.0898
133 | GGAGTCCC | -0.309
134 | AACTCACG | 0.313
135 | TAGTGAGA | 0.0523
136 | GGGGCCGA | -0.306
137 | TAGATCCA | -0.0741
138 | CTGTGGCA | -0.176
139 | AAGGTACT | 0.00043
140 | ACTATCAC | 0.0962
141 | ACGGGGGC | -0.222
142 | CGTGATTC | 0.125
143 | TCGCCACA | 0.0124
144 | CATAGTAA | 0.25
145 | CCTTTGAA | -0.157
146 | ACTCCCCT | -0.261
147 | CGCCACAA | 0.121
148 | GATCCTAC | 0.0127
149 | CAAAGTGC | -6e-05
150 | AGGTGTAA | -0.0269

Row | Sequence | PBM E-score
151 | ATCTCTGG | -0.0676
152 | CGCTGGTC | -0.261
153 | TGGTGACA | 0.173
154 | CCAGACAG | -0.243
155 | ATCGCGAT | 0.0367
156 | ATCTGGCG | 0.0902
157 | ACTCGTAA | 0.345
158 | CCTGTTAG | -0.0167
159 | CCAACAGC | -0.233
160 | GAGGCGGA | -0.297
161 | AAGTACCC | -0.253
162 | CATATATC | 0.121
163 | GCCCACGA | -0.00692
164 | AATACCCG | -0.117
165 | CTGGCAAA | 0.00481
166 | ATCTTCGA | 0.00578
167 | GTGCGATA | 0.0494
168 | ACTCCAAT | -0.165
169 | GCGTGAAA | 0.125
170 | CTGAACTC | -0.296
171 | TCCTCCAA | -0.109
172 | GAGTGTGC | -0.109

From the supplement of paper PMC3334620
